# Test results as given in PubChem BioAssay AID1671188 (National Center for Advancing Translational Sciences (NCATS), 2021).
# Hit rate of the full screen: of about 100,000 compounds, about 250 (0.25%) were called active. Inconclusive means that the source gave no clear call. Such entries were picked first, then a sample of the others. Calls follow the shape of the dose curve; as a rule, active = well fitted inhibition curve with a large enough effect; inconclusive = small, poorly fitted or top-dose-only effect; inactive = flat fitted curve, though single readings scatter. Potencies of inconclusive entries are left out as doubtful fits.
# Target: Alanine aminotransferase 2 (Homo sapiens) (UniProt Q8TD30)
# Sequence of UniProt Q8TD30 (Q8TD30 whole entry, looked up): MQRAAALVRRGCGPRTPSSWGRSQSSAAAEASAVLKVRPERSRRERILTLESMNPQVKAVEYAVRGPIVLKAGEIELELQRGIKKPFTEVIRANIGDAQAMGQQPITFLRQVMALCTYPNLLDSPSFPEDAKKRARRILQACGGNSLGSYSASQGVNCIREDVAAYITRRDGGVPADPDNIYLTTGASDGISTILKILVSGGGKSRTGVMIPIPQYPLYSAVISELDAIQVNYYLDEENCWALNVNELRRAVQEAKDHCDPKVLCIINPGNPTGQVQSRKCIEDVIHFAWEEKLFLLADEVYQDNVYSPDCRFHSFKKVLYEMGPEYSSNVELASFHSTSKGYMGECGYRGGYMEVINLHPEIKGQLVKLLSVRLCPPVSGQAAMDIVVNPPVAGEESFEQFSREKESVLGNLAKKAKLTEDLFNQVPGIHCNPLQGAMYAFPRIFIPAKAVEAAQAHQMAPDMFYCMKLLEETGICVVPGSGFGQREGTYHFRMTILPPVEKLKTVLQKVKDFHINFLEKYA
# Experiment: Primary qHTS assay for inhibitors of Glutamate pyruvate transaminase 2 (GPT2); also: nearly all actives have a fitted effect of over 60% in size
# Details: Recombinant GPT2, coupled pyruvate oxidase/HRP Amplex Red fluorescence; series mostly up to 57.7 µM
# Method in brief: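 GPT2 10ng/uL, a-KG 250uM, L-Ala 2mM, HEPES pH7.5 + 0.0001% Tween; 30 min RT. Then Amplex mix (PO/HRP/ThPP), 30 min RT dark, fluorescence. AOA 50uM used as positive control.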
# Potency is read from the fitted curve at half-maximal effect; tags tell the direction and shape of the fitted curve.
row,Compound,Potency
1,C=CCCC(CN1CCSCC1)Oc1ncc(C)c(N(C)C)n1 (stereo unspecified),inactive
2,NC[C@H]1O[C@@H]2C[C@@H](CC(=O)N3CCOCC3)O[C@@H]2[C@@H]1O,"inconclusive [inhibitor, full curve, poor fit]"
3,Cc1ccc2nc(C3CCCN(Cc4ccc(-c5cncnc5)cc4)C3)[nH]c(=O)c2c1 (stereo unspecified),inactive
4,O=C(Nc1ccc(Cl)cc1)c1nc2c(o1)CCN(Cc1ccc(F)cc1F)CC2,"inconclusive [inhibitor, full curve, poor fit]"
5,COCCNC(=O)[C@@H]1C[C@H](Oc2cccnc2)CN1C(=O)Cc1cccc(F)c1,inactive
6,COCCCOc1ccnc(CS(=O)c2nc3ccccc3[nH]2)c1C (stereo unspecified),"inconclusive [inhibitor, partial curve, poor fit]"
7,COCc1cc(CC2(NCc3ccccc3O)COC2)no1,inactive
8,O=C(CNC(=O)c1ccc(-c2cnc3ccccc3c2)cc1)NCc1ccccc1F,"inconclusive [inhibitor, single point]"
9,O=C(O[C@H]1[C@@H]2C=CO[C@@H](O[C@@H]3O[C@H](CO)[C@@H](O)[C@H](O)[C@H]3O)[C@@H]2[C@@]2(CO)O[C@@H]12)c1ccc(O)c(O)c1,"inconclusive [inhibitor, single point]"
10,O=C1NC2(CCCN(Cc3ccccc3C(F)(F)F)C2)COc2ccccc21 (stereo unspecified),inactive
11,CC(C)c1ccc(NC(=O)C2CCN(C(=O)c3ncn4c3COC(c3ccc(F)cc3)C4)CC2)cc1 (stereo unspecified),"inconclusive [inhibitor, full curve, poor fit]"
12,CN1CCN(c2ccc3ncc(Nc4ccc(F)cc4)n3n2)CC1,"inconclusive [inhibitor, single point]"
13,CC1=C[C@@H](CN2CCN(c3ccccn3)CC2)[C@H](C(C)C)C[C@H]1Cc1nnc(-c2ccccc2)o1,"inconclusive [inhibitor, single point]"
14,C=CCCC(CN1CCCOCC1)Oc1nccc(C)n1 (stereo unspecified),"inconclusive [inhibitor, single point]"
15,CN(C)C[C@@H]1CN(Cc2cccnc2)C[C@H]1NC(=O)c1ccc2c(c1)OCO2,inactive
16,Cc1ccc(Sc2cncc3sc(C(N)=O)cc23)cc1,"inconclusive [inhibitor, single point]"
17,CSCC[C@H](NC(=O)[C@H](Cc1c[nH]c2ccccc12)NC(=O)CCNC(=O)OC(C)(C)C)C(=O)N[C@@H](CC(=O)O)C(=O)N[C@@H](Cc1ccccc1)C(N)=O,"inconclusive [inhibitor, partial curve, poor fit]"
18,C=CCCC(CN1CCOCC1)Oc1ccc2cccc(OC)c2n1 (stereo unspecified),"inconclusive [inhibitor, full curve, poor fit]"
19,O=C1CC2(CCN(C(=O)C3CCCN(C(=O)c4ccccc4)C3)CC2)Oc2ccccc2N1 (stereo unspecified),"inconclusive [inhibitor, single point]"
20,COCCN1CCC(C(=O)N2Cc3cnc(CC(C)C)nc3C2)CC1,"inconclusive [inhibitor, partial curve, poor fit]"
21,Cn1cccc1CN1CCC2(C1)C(=O)Nc1ccccc12 (stereo unspecified),inactive
22,O=C1CC(c2ccccc2)N(Cc2ccncc2)CCCN(C(=O)c2ccc3ncccc3c2)CCN1 (stereo unspecified),inactive

row,Compound,Potency
1,CC(=O)Nc1ccc(CN2CCC(N3Cc4ccccc4C3=O)CC2)cc1,inactive
2,COCCNC(=O)c1ccc2c(c1)N(C)C(CC(=O)Nc1ccc[nH]c1=O)CO2 (stereo unspecified),"inconclusive [inhibitor, partial curve, poor fit]"
3,CCOC(CN1CCN(CC(C)C(=O)c2ccccc2)CC1)c1ccccc1 (stereo unspecified),"inconclusive [inhibitor, partial curve, poor fit]"
4,O=C(N[C@@H]1COCC[C@@H]1OCC1CC1)c1conc1-c1ccccc1,"inconclusive [inhibitor, single point]"
5,Cc1nc(-c2ccc(Cl)cc2)n(Cc2cccc(C(F)(F)F)c2)c(=O)c1CCO,"inconclusive [inhibitor, single point]"
6,O=C(CN1CC2CC(C1)[C@H]1CCCC(=O)N1C2)NCCCc1ccccc1 (stereo partly specified),"inconclusive [inhibitor, single point]"
7,COc1ccc(-c2noc(-c3cccn3CC(=O)Nc3ccc(F)c(F)c3)n2)cc1F,inactive
8,C#C[C@]1(O)CC[C@@H]2[C@@H]3CCC4=CC(=O)CC[C@@H]4[C@H]3CC[C@@]21CC,inactive
9,COc1ccc(CN2CCC(CO)(CN3CCCC3)CC2)cc1C,"inconclusive [inhibitor, single point]"
10,COC(=O)CNC(=O)c1nc2sccn2c1-c1ccc(OC)cc1,inactive
11,CC(C)=C1CC2C(CCC2(C)O)C(C)(O)CC1=O (stereo unspecified),inactive
12,Cc1nccn1CC(=O)NCC1CCN(c2cc(-c3ccc(Cl)cc3)[nH]n2)CC1,"inconclusive [inhibitor, single point]"
13,CC(C)c1noc(-c2cn(C3CCN(C(=O)c4cccc(C(F)(F)F)c4)C3)nn2)n1 (stereo unspecified),inactive
14,COc1ccc(-c2cc(N3CCCN(C(=O)Cc4ccc(Cl)cc4)CC3)n[nH]2)cc1,"inconclusive [inhibitor, single point]"
15,O=C(Nc1ccc(Cl)cc1Cl)c1cn2c(n1)CN(C(=O)c1ccccc1F)CC2,"inconclusive [inhibitor, partial curve, poor fit]"
16,O=C(c1ccc(F)cc1)N1CCC2(CC1)Cc1ccccc1NC2=O,inactive
17,CCn1ccc(C(=O)N2CCCCCCNC(=O)[C@@H]3C[C@@H](c4nc(Cc5ccccc5)no4)C[C@@H]32)n1,"inconclusive [inhibitor, partial curve, poor fit]"
18,CCc1nc2c(c(-c3ccc(OC)cc3)n1)CCN([S+](=O)([O-])c1ccccc1)CC2,inactive
19,CCNC(=O)[C@@H]1C[C@@H](NC(=O)c2csc(C)c2CC)CN1C1CCCC1,"inconclusive [inhibitor, single point]"
20,CCCn1ccnc1CN1CCCC12CCN(c1ccc(C(F)(F)F)cn1)CC2,"inconclusive [inhibitor, single point]"
21,O=C(NCCN1CCOCC1)c1cn2cc(-c3cccc(C(F)(F)F)c3)sc2n1,"inconclusive [inhibitor, single point]"
22,CCN1CCN(C(=O)C2CCCN(c3ccnc4ccnn34)C2)CC1 (stereo unspecified),inactive

row,Compound,Potency
1,COCC1CN(C)CC12CCN(C(=O)CCc1cccc(OC)c1)CC2 (stereo unspecified),inactive
2,CCOCCCNc1ncnc2c1CN(c1cccc(C)c1)C(=O)CN2C,"inconclusive [inhibitor, single point]"
3,O=C1NC2(CCN(Cc3ccsc3)C2)Oc2ccccc21 (stereo unspecified),inactive
4,O=c1c2nc(Nc3ccc(C(F)(F)F)cc3)ccc2ncn1C1CC1,"inconclusive [inhibitor, single point]"
5,CC(C)(Cc1c[nH]c2ccccc12)NCC(O)COc1ccccc1C#N (stereo unspecified),"inconclusive [inhibitor, single point]"
6,O=C1Nc2ccc(-c3cccc(C(F)(F)F)c3)cc2C(=O)N2CCN(C(=O)c3ccco3)C[C@@H]12,inactive
7,c1ccc(CCCN[C@H]2CO[C@H]3[C@@H]2OC[C@@H]3n2cc(-c3ccccc3)nn2)cc1,inactive
8,CCOCCOC1CCN(C(=O)Nc2cccc(F)c2)CC1,"inconclusive [inhibitor, single point]"
9,COc1cc(Nc2ncc3c(n2)-c2ccc(Cl)cc2C(c2c(F)cccc2OC)=NC3)ccc1C(=O)O,inactive
10,COc1ccc(CNC(=O)Cn2ccn3nc(-c4ccc(F)cc4)c(CO)c3c2=O)cc1OC,"inconclusive [inhibitor, single point]"
11,COc1cccc(C(=O)NCCC2CCN(C(=O)Nc3ccc(C)cc3)CC2)c1,inactive
12,COc1ncccc1-c1cc(-c2ccc(=O)[nH]c2)c2cncn2c1,"inconclusive [inhibitor, full curve, poor fit]"
13,CCNC(=O)c1ccc2c(c1)OCCN(c1cccc(OC(F)(F)F)c1)C2,"inconclusive [inhibitor, single point]"
14,COc1cc(OC)c(NC(=O)CCn2ccn3nc4c(c3c2=O)CCCC4)cc1Cl,"inconclusive [inhibitor, full curve, poor fit]"
15,O=C(NCc1csc(-c2cnccn2)n1)C1CNCCO1 (stereo unspecified),"inconclusive [inhibitor, single point]"
16,CN1CC(=O)N(C2CCCC2)Cc2c(NC3CCNCC3)ncnc21,"inconclusive [inhibitor, full curve]"
17,O=C(NC1CCN(c2cc(-c3ccc(F)cc3)[nH]n2)C1)c1cccc(F)c1 (stereo unspecified),"inconclusive [inhibitor, partial curve]"
18,O=C(NCCn1cc(C2CCCNC2)nn1)c1ccc(F)cc1 (stereo unspecified),"inconclusive [inhibitor, partial curve, poor fit]"
19,CCc1cccc(NC(=O)N2CCC(OC3CCN(Cc4ccccc4)CC3)CC2)c1,"inconclusive [inhibitor, single point]"
20,CCO[C@H]1CN(C(=O)Cn2ncc3ccccc3c2=O)C[C@@H]1O,"inconclusive [inhibitor, single point]"
21,Cc1ccc(CNC(=O)c2ccc(-c3ccc(N4CCCCC4)nc3)cc2)o1,inactive
22,CCC1(N2CCN(C(=O)NCc3cccc(F)c3)CC2)CCN(C(=O)C(C)C)C1 (stereo unspecified),inactive
